Laboratory results: the supplement of paper PMC4604168 (melanoma cell lines)
Some of the results follow. Repeats are few or missing, and single values can be far off.

Assays:
Test in all cases: cell count relative to DMSO control; melanoma cells; higher = more viable cells
Conditions in all cases: library dose: low library concentration; 72 h
WM115 = tested on: WM115
WM1716 = tested on: WM1716
WM1745 = tested on: WM1745
WM3526 = tested on: WM3526
WM3619 = tested on: WM3619
WM451Lu = tested on: WM451Lu
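Further: cell number obtained by counting DAPI-stained nuclei in high-throughput microscope images with image analysis software, screen run in 1,536-well plates.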

| Structure (SMILES) | cell count (WM115) | cell count (WM1716) | cell count (WM1745) | cell count (WM3526) | cell count (WM3619) | cell count (WM451Lu) |
| --- | --- | --- | --- | --- | --- | --- |
| C=C(c1ccc(C(=O)O)cc1)c1cc2c(cc1C)C(C)(C)CCC2(C)C [Bexarotene] + C[C@@H]1CCN(C(=O)CC#N)C[C@@H]1N(C)c1ncnc2[nH]ccc12 [CP690550] (first compound 2 µM, partner dose 1 µM) | 93.9% | 90.1% | 89% | 80.3% | 126% | 76.4% |
| NC1(c2ccc(-c3nc4ccn5c(=O)[nH]nc5c4cc3-c3ccccc3)cc2)CCC1 + OCCn1cc(-c2cnc3nnn(Cc4ccc5ncccc5c4)c3n2)cn1 [PF04217903] (first compound 0.4 µM, partner dose 1 µM) | 84.9% | 96.5% | 96.1% | 63.2% | 94.9% | 108% |
| C=C(c1ccc(C(=O)O)cc1)c1cc2c(cc1C)C(C)(C)CCC2(C)C [Bexarotene] + OCCn1cc(-c2cnc3nnn(Cc4ccc5ncccc5c4)c3n2)cn1 [PF04217903] (first compound 2 µM, partner dose 1 µM) | 92.2% | 84.7% | 86.3% | 91.1% | 95.8% | 93.9% |
| CN(c1ncccc1CNc1nc(Nc2ccc3c(c2)CC(=O)N3)ncc1C(F)(F)F)S(C)(=O)=O + CC(C)CCN1c2nc(Nc3cc(F)c(O)c(F)c3)ncc2N(C)C(=O)C1C [BID1870] (first compound 0.08 µM, partner dose 0.2 µM) | 72.2% | 88.1% | 76% | 96% | 105% | 72.2% |
| CCCS(=O)(=O)Nc1ccc(F)c(C(=O)c2c[nH]c3ncc(Cl)cc23)c1F + CCc1ccc(CCOc2ccc(CC3SC(=O)NC3=O)cc2)nc1 [pioglitazone] (first compound 0.08 µM, partner dose 2 µM) | 101% | 128% | 94.6% | 58.8% | 60.5% | 103% |
| CS(=O)(=O)c1ccc(C(=O)Nc2ccc(Cl)c(-c3ccccn3)c2)c(Cl)c1 [vismodegib] + CN(NC(=O)CC(=O)NN(C)C(=S)c1ccccc1)C(=S)c1ccccc1 [STA4783] (first compound 1 µM, partner dose 0.006 µM) | 90% | 82.3% | 39.1% | 108% | 58.8% | 121% |
| CN(c1ncccc1CNc1nc(Nc2ccc3c(c2)CC(=O)N3)ncc1C(F)(F)F)S(C)(=O)=O + COc1ccc(COc2ccc(Cc3cnc(N)nc3N)cc2OC)cc1 [GW2580] (first compound 0.08 µM, partner dose 1 µM) | 80.4% | 85.1% | 87.3% | 102% | 81.8% | 79.1% |
| CN(c1ncccc1CNc1nc(Nc2ccc3c(c2)CC(=O)N3)ncc1C(F)(F)F)S(C)(=O)=O + c1cc(-c2cnn3cc(-c4ccc(OCCN5CCCCC5)cc4)cnc23)ccn1 [Dorsomorphin] (first compound 0.08 µM, partner dose 0.4 µM) | 76.5% | 78.5% | 80% | 82.9% | 78.4% | 79.6% |
| C=C(c1ccc(C(=O)O)cc1)c1cc2c(cc1C)C(C)(C)CCC2(C)C [Bexarotene] + COCC[n+]1c2c(n(Cc3cnccn3)c1C)C(=O)c1ccccc1C2=O [YM155] (first compound 2 µM, partner dose 0.0004 µM) | 115% | 70.3% | 101% | 80.7% | 107% | 96.2% |
| CCCS(=O)(=O)Nc1ccc(F)c(C(=O)c2c[nH]c3ncc(Cl)cc23)c1F + Cn1nnc2c(C(N)=O)ncn2c1=O [temozolomide] (first compound 0.08 µM, partner dose 2 µM) | 108% | 96.4% | 97.1% | 81.2% | 89.5% | 108% |
| NC1(c2ccc(-c3nc4ccn5c(=O)[nH]nc5c4cc3-c3ccccc3)cc2)CCC1 + Cn1nnc2c(C(N)=O)ncn2c1=O [temozolomide] (first compound 0.4 µM, partner dose 2 µM) | 73.1% | 98% | 82.6% | 70.5% | 70% | 101% |
| CS(=O)(=O)c1ccc(C(=O)Nc2ccc(Cl)c(-c3ccccn3)c2)c(Cl)c1 [vismodegib] + CC(C)CCN1c2nc(Nc3cc(F)c(O)c(F)c3)ncc2N(C)C(=O)C1C [BID1870] (first compound 1 µM, partner dose 0.2 µM) | 87.4% | 105% | 107% | 105% | 92.6% | 97.3% |
| CS(=O)(=O)c1ccc(C(=O)Nc2ccc(Cl)c(-c3ccccn3)c2)c(Cl)c1 [vismodegib] + C[C@@H](Oc1cc(-c2cnn(C3CCNCC3)c2)cnc1N)c1c(Cl)ccc(F)c1Cl [Crizotinib] (first compound 1 µM, partner dose 0.2 µM) | 106% | 104% | 107% | 111% | 103% | 91.6% |
| CN(c1ncccc1CNc1nc(Nc2ccc3c(c2)CC(=O)N3)ncc1C(F)(F)F)S(C)(=O)=O + COc1ccc(Cl)c(Nc2nc3ccccc3nc2NS(=O)(=O)c2cccc(NC(=O)C(C)(C)N)c2)c1 [XL147] (first compound 0.08 µM, partner dose 0.8 µM) | 79.9% | 79.3% | 65.4% | 91.9% | 90.5% | 47.2% |
| CS(=O)(=O)c1ccc(C(=O)Nc2ccc(Cl)c(-c3ccccn3)c2)c(Cl)c1 [vismodegib] + COc1cc(N2CCC(N3CCN(C)CC3)CC2)ccc1Nc1ncc(Cl)c(Nc2ccccc2S(=O)(=O)C(C)C)n1 [NVP-TAE684] (first compound 1 µM, partner dose 0.08 µM) | 95.3% | 95.5% | 83.5% | 104% | 98.8% | 86.8% |
| NC1(c2ccc(-c3nc4ccn5c(=O)[nH]nc5c4cc3-c3ccccc3)cc2)CCC1 + O=C(O)C(=O)Nc1sc2c(c1C(=O)O)CCNC2 [TCS401] (first compound 0.4 µM, partner dose 1.66667 µM) | 77.2% | 83.8% | 73.3% | 66.3% | 92.6% | 105% |
| C=C(c1ccc(C(=O)O)cc1)c1cc2c(cc1C)C(C)(C)CCC2(C)C [Bexarotene] + CCN(CC)CCCCNc1ncc2cc(-c3cc(OC)cc(OC)c3)c(NC(=O)NC(C)(C)C)nc2n1 [PD173074] (first compound 2 µM, partner dose 0.1 µM) | 108% | 91% | 98.4% | 85.5% | 93.1% | 93.5% |
| CN(c1ncccc1CNc1nc(Nc2ccc3c(c2)CC(=O)N3)ncc1C(F)(F)F)S(C)(=O)=O + COc1cc(Nc2ncc(F)c(Nc3ccc4c(n3)NC(=O)C(C)(C)O4)n2)cc(OC)c1OC [Tamatinib] (first compound 0.08 µM, partner dose 0.4 µM) | 75.1% | 80.4% | 46.3% | 102% | 86% | 88% |
| CN(c1ncccc1CNc1nc(Nc2ccc3c(c2)CC(=O)N3)ncc1C(F)(F)F)S(C)(=O)=O + Cc1nc(Nc2ncc(C(=O)Nc3c(C)cccc3Cl)s2)cc(N2CCN(CCO)CC2)n1 [dasatanib] (first compound 0.08 µM, partner dose 0.004 µM) | 69.3% | 82.4% | 57.7% | 107% | 89.4% | 59.4% |
| C=C(c1ccc(C(=O)O)cc1)c1cc2c(cc1C)C(C)(C)CCC2(C)C [Bexarotene] + CN(C)S(=O)(=O)c1ccc2c(c1)/C(=C/c1cc3c([nH]1)CCCC3)C(=O)N2 [SU6656] (first compound 2 µM, partner dose 0.4 µM) | 85.5% | 92.4% | 101% | 108% | 96.5% | 74.9% |
| C=C(c1ccc(C(=O)O)cc1)c1cc2c(cc1C)C(C)(C)CCC2(C)C [Bexarotene] + NC(=O)Nc1cc(-c2cccc(F)c2)sc1C(=O)N[C@H]1CCCNC1 [AZD7762] (first compound 2 µM, partner dose 0.02 µM) | 89.5% | 71.8% | 102% | 81.9% | 77.9% | 76.3% |
| C=C(c1ccc(C(=O)O)cc1)c1cc2c(cc1C)C(C)(C)CCC2(C)C [Bexarotene] + C[C@]1(c2nc3c(C(N)=O)cccc3[nH]2)CCCN1 [Veliparib] (first compound 2 µM, partner dose 1.4 µM) | 73.6% | 82.6% | 85.2% | 95.9% | 88.1% | 87.7% |
| CS(=O)(=O)c1ccc(C(=O)Nc2ccc(Cl)c(-c3ccccn3)c2)c(Cl)c1 [vismodegib] + COC(=O)c1sccc1S(=O)(=O)Nc1ccc(Nc2ccccc2)cc1OC [GSK0660] (first compound 1 µM, partner dose 1 µM) | 97.1% | 102% | 97.9% | 104% | 80.7% | 104% |
| CS(=O)(=O)c1ccc(C(=O)Nc2ccc(Cl)c(-c3ccccn3)c2)c(Cl)c1 [vismodegib] + Nc1ncn([C@H]2C[C@H](O)[C@@H](CO)O2)c(=O)n1 [decitabine] (first compound 1 µM, partner dose 0.1 µM) | 82.8% | 93.6% | 86.5% | 109% | 102% | 91.7% |
| CN(c1ncccc1CNc1nc(Nc2ccc3c(c2)CC(=O)N3)ncc1C(F)(F)F)S(C)(=O)=O + CC(=O)c1c(C)c2cnc(Nc3ccc(N4CCNCC4)cn3)nc2n(C2CCCC2)c1=O [palbociclib] (first compound 0.08 µM, partner dose 0.04 µM) | 52.8% | 63% | 70.8% | 74.3% | 85.7% | 69.6% |
| NC1(c2ccc(-c3nc4ccn5c(=O)[nH]nc5c4cc3-c3ccccc3)cc2)CCC1 + N#Cc1c(O)c2c(-c3ccc(-c4ccccc4O)cc3)csc2[nH]c1=O [A769662] (first compound 0.4 µM, partner dose 2 µM) | 74.9% | 77.4% | 103% | 58.8% | 125% | 98.7% |
